Assay results taken from the supplement of paper PMC4967469.
By IC50 is meant the dose at which the fit gives 50% viability; where the fit passes the top or lowest dose, that dose stands as a limit. AUC sums up the same curve from the lowest dose to the 256-fold higher top dose; the more sensitive the line, the further below 1. For some assays here: The top dose, if marked as inferred, is not printed in the source and was worked back from the curve model.

Assays:
Assay in all cases: Viability of human cancer cell lines after 72 h of drug (GDSC screen)
Bosutinib = compound: COc1cc(Nc2c(C#N)cnc3cc(OCCCN4CCN(C)CC4)c(OC)cc23)c(Cl)cc1Cl [Bosutinib]; conditions: top dose 2 µM
Protocol: (§1)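 Human cancer cell lines in 384-well plates, medium with 10% serum, drug for 72 h over a 256-fold dose range (nine 2-fold or five 4-fold steps up to the top dose). Adherent lines were fixed and stained with the nucleic acid dye Syto60, suspension lines read with resazurin; signal relative to control wells, capped at 0 and 100%. One two-parameter sigmoid per drug and line, fitted in a mixed model over all curves with the slope shared within a line.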

NVP-BHG712 = compound: Cc1ccc(C(=O)Nc2cccc(C(F)(F)F)c2)cc1Nc1nc(-c2cccnc2)nc2c1cnn2C [NVP-BHG712]; conditions: top dose 10.24 µM; top dose inferred
Protocol: as §1

IOX2 = compound: O=C(O)CNC(=O)c1c(O)c2ccccc2n(Cc2ccccc2)c1=O [IOX2]; conditions: top dose 0.1 µM; top dose inferred
Protocol: as §1

Midostaurin = compound: CO[C@@H]1[C@H](N(C)C(=O)c2ccccc2)C[C@H]2O[C@]1(C)n1c3ccccc3c3c4c(c5c6ccccc6n2c5c31)C(=O)NC4 [Midostaurin]; conditions: top dose 0.512 µM; top dose inferred
Protocol: as §1

Row | Cell Line | AUC (Bosutinib) | IC50 (Bosutinib) | AUC (NVP-BHG712) | IC50 (NVP-BHG712) | AUC (IOX2) | IC50 (IOX2) | AUC (Midostaurin) | IC50 (Midostaurin)
1 | OVCAR-8 (ovary, adherent) | 0.972 | > 2 µM | 0.902 | > 10.2 µM | 0.98 | > 0.1 µM | – | –
2 | DU-145 (prostate, adherent) | 0.971 | > 2 µM | 0.962 | > 10.2 µM | 0.973 | > 0.1 µM | – | –
3 | JHOS-2 (ovary, adherent) | 0.848 | 1.87 µM | 0.908 | > 10.2 µM | 0.971 | > 0.1 µM | – | –
4 | ESO51 (oesophagus, semi-adherent) | 0.969 | > 2 µM | 0.894 | > 10.2 µM | 0.963 | > 0.1 µM | – | –
5 | ACHN (kidney, adherent) | 0.711 | – | 0.908 | > 10.2 µM | 0.979 | > 0.1 µM | – | –
6 | RCC-AB (kidney, adherent) | 0.92 | > 2 µM | 0.868 | > 10.2 µM | 0.973 | > 0.1 µM | – | –
7 | CAKI-1 (kidney, adherent) | 0.877 | > 2 µM | 0.92 | > 10.2 µM | 0.973 | > 0.1 µM | – | –
8 | U251 (glioma, adherent) | 0.988 | > 2 µM | 0.912 | > 10.2 µM | 0.94 | > 0.1 µM | – | –
9 | M14 (melanoma, adherent) | 0.917 | > 2 µM | 0.556 | 0.916 µM | 0.974 | > 0.1 µM | – | –
10 | UWB1.289 (ovary, adherent) | 0.916 | > 2 µM | 0.887 | > 10.2 µM | 0.951 | > 0.1 µM | – | –
11 | RCC-MF (kidney, adherent) | 0.878 | > 2 µM | 0.724 | 3.41 µM | 0.967 | > 0.1 µM | – | –
12 | TK10 (kidney, adherent) | 0.872 | > 2 µM | 0.864 | > 10.2 µM | 0.971 | > 0.1 µM | – | –
13 | OVCA433 (ovary, adherent) | 0.909 | > 2 µM | 0.957 | > 10.2 µM | 0.968 | > 0.1 µM | – | –
14 | SF539 (glioma, adherent) | 0.877 | 1.67 µM | 0.943 | > 10.2 µM | 0.978 | > 0.1 µM | – | –
15 | OV-7 (ovary, adherent) | 0.972 | > 2 µM | 0.763 | 5.67 µM | 0.968 | > 0.1 µM | – | –
16 | MOLT-13 (T-cell lymphoblastic leukaemia, suspension) | 0.971 | > 2 µM | 0.712 | 2.33 µM | 0.983 | > 0.1 µM | – | –
17 | A375 (melanoma, adherent) | 0.67 | 0.337 µM | 0.71 | 2.21 µM | 0.99 | > 0.1 µM | – | –
18 | HCC1806 (breast, adherent) | – | – | 0.944 | > 10.2 µM | 0.988 | > 0.1 µM | 0.947 | > 0.512 µM
19 | SNU-C5 (large intestine, adherent) | 0.806 | 1.14 µM | 0.934 | > 10.2 µM | 0.97 | > 0.1 µM | – | –
20 | A498 (kidney, adherent) | 0.814 | 1.87 µM | 0.978 | > 10.2 µM | 0.976 | > 0.1 µM | – | –

Row | Cell Line | AUC (Bosutinib) | IC50 (Bosutinib) | AUC (NVP-BHG712) | IC50 (NVP-BHG712) | AUC (IOX2) | IC50 (IOX2) | AUC (Midostaurin) | IC50 (Midostaurin)
21 | COR-L321 (lung, suspension) | 0.966 | > 2 µM | 0.963 | > 10.2 µM | 0.986 | > 0.1 µM | – | –
22 | RCC-JW (kidney, adherent) | 0.906 | > 2 µM | 0.944 | > 10.2 µM | 0.973 | > 0.1 µM | – | –
23 | SW620 (large intestine, adherent) | 0.98 | > 2 µM | 0.904 | > 10.2 µM | 0.989 | > 0.1 µM | – | –
24 | D-423MG (glioma, adherent) | 0.914 | > 2 µM | 0.926 | > 10.2 µM | 0.936 | > 0.1 µM | – | –
25 | RT-112 (bladder, adherent) | – | – | 0.908 | > 10.2 µM | 0.983 | > 0.1 µM | 0.815 | 0.31 µM
26 | KP-4 (pancreas, adherent) | – | – | 0.985 | > 10.2 µM | 0.987 | > 0.1 µM | 0.826 | 0.292 µM
27 | T-24 (bladder, adherent) | – | – | 0.966 | > 10.2 µM | 0.983 | > 0.1 µM | 0.914 | > 0.512 µM
28 | UACC-62 (melanoma, adherent) | 0.981 | > 2 µM | 0.939 | > 10.2 µM | 0.986 | > 0.1 µM | – | –
29 | OVCA420 (ovary, adherent) | 0.902 | > 2 µM | 0.948 | > 10.2 µM | 0.979 | > 0.1 µM | – | –
30 | SNU-81 (large intestine, adherent) | 0.824 | 1.77 µM | 0.981 | > 10.2 µM | 0.98 | > 0.1 µM | – | –
31 | QGP-1 (pancreas, adherent) | 0.919 | > 2 µM | 0.764 | 6.18 µM | 0.959 | > 0.1 µM | – | –
32 | KP-1N (pancreas, adherent) | 0.97 | > 2 µM | – | – | 0.976 | > 0.1 µM | 0.845 | 0.397 µM
33 | HT-1080 (fibrosarcoma, adherent) | 0.736 | 0.541 µM | 0.96 | > 10.2 µM | 0.988 | > 0.1 µM | – | –
34 | NCI-H322M (lung adenocarcinoma, suspension) | 0.923 | > 2 µM | 0.974 | > 10.2 µM | 0.975 | > 0.1 µM | – | –
35 | PEO1 (ovary, adherent) | 0.9 | > 2 µM | 0.911 | > 10.2 µM | 0.98 | > 0.1 µM | – | –
36 | T47D (breast, adherent) | 0.966 | > 2 µM | 0.901 | > 10.2 µM | 0.974 | > 0.1 µM | – | –
37 | SK-OV-3 (ovary, adherent) | 0.793 | 1.19 µM | 0.948 | > 10.2 µM | 0.979 | > 0.1 µM | – | –
38 | DOV13 (ovary, adherent) | 0.774 | 0.912 µM | 0.979 | > 10.2 µM | 0.946 | > 0.1 µM | – | –
39 | HeLa (cervix, adherent) | – | – | 0.981 | > 10.2 µM | 0.988 | > 0.1 µM | 0.898 | > 0.512 µM
